# Measurements as given in PubChem BioAssay AID485281 (National Center for Advancing Translational Sciences (NCATS), 2010).
# The campaign covered roughly 350,000 compounds. About 260 (0.074%) were called active. This list was built around the results that the source calls inconclusive (neither active nor inactive); the mix of calls is not that of the screen. Calls come from the whole dose curve; as a rule, active = well fitted inhibition curve with a large enough effect; inconclusive = small, poorly fitted or top-dose-only effect; inactive = no such curve, though single readings can be large or run the other way. A potency beside an inconclusive call is a rough fit, not a confirmed value.
# Molecular target: Ferritin light chain (Equus caballus) (UniProt P02791)
# Assay: qHTS Assay for Identification of Novel General Anesthetics; note: nearly all actives have a fitted effect of over 20% in size
# Details: apoferritin/1-aminoanthracene competitive binding, fluorescence; activity change, negative = displacement: at 77.5 µM (top of the series)
# Method in brief: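 Horse-spleen apoferritin (10 uM) was mixed with 50% saturated 1-aminoanthracene in PBS, exposed to compounds for 10 min at room temperature, and read for fluorescence (ex 380 nm, em 535 nm). Competitive displacement was fitted with a four-parameter Hill equation.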
# % is set by controls: 0 for no effect and ±100 for the full control effect; potency is the fitted concentration of half-maximal effect; tags give direction and shape of the fitted curve.
# Sequence of UniProt P02791 (P02791 whole entry, looked up): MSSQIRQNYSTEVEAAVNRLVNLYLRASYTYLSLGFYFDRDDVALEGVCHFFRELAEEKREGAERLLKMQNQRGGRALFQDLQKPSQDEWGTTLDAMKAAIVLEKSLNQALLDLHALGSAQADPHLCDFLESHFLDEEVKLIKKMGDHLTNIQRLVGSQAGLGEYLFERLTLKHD
SMILES,Potency,"activity change, negative = displacement"
O=C(Nc1ccc(S(=O)(=O)N2CCCCC2)cc1)c1ccccc1Cl,"inconclusive: 17.8 µM [inhibitor, partial curve]",–
Cc1ccsc1CN(C(=O)COc1ccccc1Cl)C1CCS(=O)(=O)C1 (stereo unspecified),–,inactive: -3.35%
Cc1[nH]c(=O)[nH]c(=O)c1/C=N\NC(=O)CCc1ccc(OC(C)C)cc1,–,inactive: -9.62%
COc1ccccc1/C=C/C(=O)NCC(=O)N/N=C/c1ccccc1,"inconclusive: 25.1 µM [inhibitor, partial curve]",–
NS(=O)(=O)c1ccc(Cc2ncc(C(F)(F)F)cc2Cl)s1,"inconclusive: 22.4 µM [inhibitor, partial curve]",–
Brc1ccc(-c2csc3ncnc(-n4nnc5ccccc54)c23)cc1,–,inactive: 0.708%
COc1ccc(-c2cc(C(=O)N/N=C/c3cccnc3)c3cc(C)cc(C)c3n2)cc1,–,inactive: -18.7%
COc1ccc(/C=C2/SC(=O)N(NS(=O)(=O)c3ccccc3)C2=S)cc1OC,"inconclusive: 35.5 µM [inhibitor, partial curve]",–
CN(C)c1ccnc(NCc2ccccc2)c1C#N,"inconclusive: 31.6 µM [inhibitor, partial curve]",–
Cc1ccc(CNc2nc(-c3ccco3)nn2C(=O)c2ccccc2[N+](=O)[O-])cc1,"inconclusive: 11.2 µM [inhibitor, partial curve]",–
CCc1ccc(C(c2ccccc2)c2c(C)[nH]c3ccccc23)s1 (stereo unspecified),–,inactive: 32.3%
COc1ccc(/C=C/C(=O)NCc2c(C)nn(C)c2C)cc1COc1ccc(Br)cc1,"inconclusive: 20 µM [inhibitor, partial curve]",–
COC(=O)c1noc(-c2ccc(C)cc2)n1,"inconclusive: 44.7 µM [inhibitor, single point]",–
CCCC(C)NS(=O)(=O)c1ccccc1 (stereo unspecified),"inconclusive: 35.5 µM [inhibitor, partial curve]",–
CCCc1nc(SCc2ccccn2)c2c(=O)n(C)c(=O)n(C)c2n1,"inconclusive: 35.5 µM [inhibitor, partial curve]",–
CNC(=O)NC(=O)CN1C(=O)NC2(CCOc3ccccc32)C1=O (stereo unspecified),–,inactive: 35.7%
COc1ccc(NC(=O)n2nc(OC(=O)c3cccs3)cc2N)cc1,–,inactive: -23%
COc1ccc(S(=O)(=O)N2CCN(Cc3ccccc3)CC2)cc1,–,inactive: -10.4%
O=C(N/N=C/c1cccnc1)c1cc(-c2ccccc2Cl)nc2ccccc12,"inconclusive: 7.94 µM [inhibitor, partial curve]",–
CN(C)S(=O)(=O)Oc1ccsc1C(=O)Nc1ccc(Cl)cc1,"inconclusive: 35.5 µM [inhibitor, partial curve]",–
Cc1nn(-c2ccccc2)c(C)c1C(=O)OCC(=O)Nc1ccc2c(c1)OCO2,"inconclusive: 14.1 µM [inhibitor, partial curve]",–
